# Measured values published in the supplement of paper PMC12645437, “Orthogonal IMiD-Degron Pairs Induce Selective Protein Degradation in Cells” (ACS Chemical Biology, 2025).
# Some of the results follow.
# Biological target: no compound (DMSO)
# Experiment: log2 fold change of degron read counts, EGFP-low vs EGFP+ sorted cells; higher = lower degron-EGFP level without compound (poor expression or instability)
# Conditions: compound: DMSO control; 18 h
# 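Also: jurkat cells carrying a lentiviral library of mutant zinc finger degrons fused to EGFP plus mCherry, mCherry+ cells FACS sorted, degron abundance counted by next-generation sequencing.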
row,Sequence,log2 fold change of degron read counts
1,FNCEICGHIFTQKGNLLRHIKL,-0.0963
2,FCCPVCGACFTQKGNLLRHIKL,-0.126
3,FACPICGANFTQKGNLLRHIKL,0.0159
4,FECNQCGHLFTQKGNLLRHIKL,-1.06
5,LDCEICGFLCTQKGNLLRHIKL,1.39
6,FACEICGAYFTQKGNLLRHIKL,-0.292
7,FQCPICGRNFTQKGNLLRHIKL,-0.162
8,FECEICGALFTQKGNLLRHIKL,-0.957
9,FSCPVCGAMFTQKGNLLRHIKL,0.231
10,FQCNQCGRGFTQKGNLLRHIKL,-0.558
11,FVCNICGARFTQKGNLLRHIKL,0.252
12,FSCEVCGAVFTQKGNLLRHIKL,-2.34
13,FLCNVCGAIFTQKGNLLRHIKL,0.503
14,FYCNQCGRRFTQKGNLLRHIKL,-0.273
15,FGCDVCGACFTQKGNLLRHIKL,-0.789
16,LLCPICGFYCTQKGNLLRHIKL,2.09
17,FLCNQCGAAFTQKGNLLRHIKL,-1.62
18,LSCEICGFHCTQKGNLLRHIKL,-0.749
19,FFCEICGHWFTQKGNLLRHIKL,0.78
20,FLCPICGHIFTQKGNLLRHIKL,0.661
21,FRCPVCGAQFTQKGNLLRHIKL,-0.701
22,LTCEICGFPCTQKGNLLRHIKL,-0.246
23,FECNQCGALFTQKGNLLRHIKL,-1.13
24,FMCDQCGAAFTQKGNLLRHIKL,-3.1
25,FTCNQCGHKFTQKGNLLRHIKL,-0.375

row,Sequence,log2 fold change of degron read counts
1,FGCDQCGAAFTQKGNLLRHIKL,-1.8
2,FICDVCGAWFTQKGNLLRHIKL,-0.51
3,LTCEICGFTCTQKGNLLRHIKL,-0.864
4,LMCNQCGFDCTQKGNLLRHIKL,-0.543
5,LKCPICGFICTQKGNLLRHIKL,0.0643
6,FVCPICGHTFTQKGNLLRHIKL,0.0796
7,FNCEQCGAWFTQKGNLLRHIKL,-1.14
8,FQCPICGHFFTQKGNLLRHIKL,0.657
9,FNCSVCGHFFTQKGNLLRHIKL,0.897
10,FQCEICGAWFTQKGNLLRHIKL,-1.17
11,FICNICGACFTQKGNLLRHIKL,0.418
12,FLCEQCGALFTQKGNLLRHIKL,-1.21
13,FVCDICGATFTQKGNLLRHIKL,-1.11
14,FCCNVCGAFFTQKGNLLRHIKL,-0.0172
15,FYCNQCGHCFTQKGNLLRHIKL,0.174
16,FTCEVCGAWFTQKGNLLRHIKL,-0.628
17,FNCDICGAKFTQKGNLLRHIKL,-1.52
18,FACNQCGRSFTQKGNLLRHIKL,-1.21
19,FFCDVCGAEFTQKGNLLRHIKL,-1.94
20,FQCEICGRVFTQKGNLLRHIKL,-0.67
21,LACPICGFSCTQKGNLLRHIKL,0.505
22,FVCPVCGASFTQKGNLLRHIKL,-0.591
23,FWCEICGHPFTQKGNLLRHIKL,0.303
24,FDCNQCGAYFTQKGNLLRHIKL,1.13
25,FACNVCGAVFTQKGNLLRHIKL,-0.739
